Read counts are not given, so values of variants with three or more changes are uncertain.
B1: LINE1-full (parent)
chain: UACGUAGGUGGUUUUCCCCUGAUAGUGCUAAGGGGGCCUGGAAGUUUGGACUGGGCAGAGCUCAACACAGCGUGGCAAAGUGGCUGUGGCUAGACUGCCUCUCUGGAUUCCUCGUCACUCAGCAGGGCAUCUCUGAGAGAAAUGCC

Variants of: B1
Assay: self-cleavage, relative activity (ratio to wild type); higher = more cleavage; in vitro, sequencing; the parent is a self-cleaving ribozyme
In the case of U29C U132A U134A, the self-cleavage is reported as 1.3. For A78U A117U U119A, the self-cleavage was 1.85. For U1C A43U A141G, the self-cleavage was 0. In the case of U9C A57U A69G U96C, the self-cleavage is reported as 0.61. Work on U15C U108C A141U yielded a self-cleavage of 1.64. U23A U46C U91A A141G showed a self-cleavage of 0.77. For A24G U39A A65G U108A A136U, the self-cleavage was 0.1. Work on U12C U87C A92U U96C A141G yielded a self-cleavage of 0.92. C66U U87C A141G gave a self-cleavage of 0.04. In the case of U14C U39C U52A U134C, the self-cleavage is reported as 2.09. Variant A24U A65U U102A has a self-cleavage of 0.04. U52C A79G U85A U91C G125U gave a self-cleavage of 0. U13C G48C U91C gave a self-cleavage of 0.68. With U9C U23A A64U C84U U85C the self-cleavage was 0.06. With U14C G41U U134C the self-cleavage was 0.09. Variant U14C A78G U119C has a self-cleavage of 0.6. With A43U G58A A69U U85G U96C A117C A124G A142G the self-cleavage was 0. With U9A U20C C99U U104A U108C the self-cleavage was 0.3. Work on U15C U104C U115A yielded a self-cleavage of 2.3. U20G U39A A107U A117G A136G showed a self-cleavage of 1.77. Work on U20A G25A G75A yielded a self-cleavage of 0.72. In the case of U47A U62A A136U, the self-cleavage is reported as 0.01. U20A A43U U100C gave a self-cleavage of 0.17. For U20A A22G G40U, the self-cleavage was 1.4. C51A C71U A124G gave a self-cleavage of 0.48. For U45C A65U U130C A140G, the self-cleavage was 0.55. For U14C A30G U134C A141G, the self-cleavage was 1.99. With A77U U96C U108C the self-cleavage was 0.19. With C63U U109A A117G U143C the self-cleavage was 0.13. For G89A U91G A142G, the self-cleavage was 0.04. Work on A22U A50G U112C G126A G144A yielded a self-cleavage of 1. With U13C A50G U100C U132C the self-cleavage was 0. For A67G U104A A136G, the self-cleavage was 0.46. Work on U29A A50G C113U A140G yielded a self-cleavage of 0.14. A6G U9A C110U A124G U132C showed a self-cleavage of 1.36. A57G C76G G83A A94G A124G gave a self-cleavage of 0.09. A2G A77G A141U gave a self-cleavage of 0.95. With U13C U85C A140G the self-cleavage was 0.09. For A2G U12G A64U, the self-cleavage was 0.86. In the case of U23A U52C A79G A141G, the self-cleavage is reported as 1.47. U85C G106A A124U A129U gave a self-cleavage of 0.11. Work on A30U U46A U96C U115A yielded a self-cleavage of 0.11. Work on A2G G72C U130C yielded a self-cleavage of 1.19. With U47A U52G A59G the self-cleavage was 0.08. In the case of U12A A22G G54A U73C, the self-cleavage is reported as 0.57. Variant A65U G80A A142C U143A has a self-cleavage of 0.07. A57G G86A U102A U143C gave a self-cleavage of 0.03. Work on G11U A24G A129G yielded a self-cleavage of 1.18. For U1A A30G U39A U52A A79U, the self-cleavage was 1.37. Variant U20A G32U A94G has a self-cleavage of 0.14. U26C U47C G58C U62A gave a self-cleavage of 0.05. For A6U U13C U143A, the self-cleavage was 1.38. In the case of U15A A42G U102C, the self-cleavage is reported as 0.69. For A31U U73C U102A, the self-cleavage was 1.49. Work on A24U U29C C95U U119C yielded a self-cleavage of 0.41. U20C G33A U73C showed a self-cleavage of 1.58. U13C C71U G126A A136G showed a self-cleavage of 0.99. U20A U39C A65G G88U showed a self-cleavage of 0.05. With U14A A43U U96A the self-cleavage was 0.05. In the case of U14C U87A A94U U109A, the self-cleavage is reported as 0.17. In the case of C71U U81A U115A, the self-cleavage is reported as 0.94. G53A A59G U96C U119C showed a self-cleavage of 0.09. Work on U1A U5A U62C G86A U134C A138G yielded a self-cleavage of 0.07. For G55A A140G A142G, the self-cleavage was 0.17. A129C A138U C145A gave a self-cleavage of 1.41. For U5C U26C U52A A79C, the self-cleavage was 0.97. U15C A31G A57G G74U U130C showed a self-cleavage of 1.28. In the case of A50U U85A U100A, the self-cleavage is reported as 0.04. A69G U109C A117U showed a self-cleavage of 0.3. For G33A A59U C120U, the self-cleavage was 0.89. G7A G33A U130G showed a self-cleavage of 1.16. Variant U39A U62C U96C has a self-cleavage of 0.13. U12A A31G U85A gave a self-cleavage of 0.07. Work on U26C G40A U81C U112C A117G yielded a self-cleavage of 0. In the case of A69G A92U U96C, the self-cleavage is reported as 0. U81A U91C U115C U143C showed a self-cleavage of 1.31. For U9C G27U U29C U132C, the self-cleavage was 1.53. For A64G C71U A140G, the self-cleavage was 0.13. With U20C A50G A77U A121G A140G the self-cleavage was 0. Variant A6U U119C A140G has a self-cleavage of 2.14. U12C A94G A136U gave a self-cleavage of 0.42. Work on C3U U62A U100C U112A yielded a self-cleavage of 0.03. In the case of U39A U52C U62A C95U A129U, the self-cleavage is reported as 0.03. A43G A69G U132C U143C gave a self-cleavage of 0.25. Work on U9C C19U U108C yielded a self-cleavage of 1.86. U1C U20A U47C U96C C111U G122U showed a self-cleavage of 0.12. With U46A A136G C145U the self-cleavage was 0.9. Work on U47C U96C U112A yielded a self-cleavage of 0. Work on U12C G72A G80A A140G yielded a self-cleavage of 2.08. In the case of A2G C84U A129G, the self-cleavage is reported as 0.28. Variant A22G A78G A79U U104A G106A A124G has a self-cleavage of 1.15. Work on U14C U23C G75C yielded a self-cleavage of 1.33. With U47A A57G A67G the self-cleavage was 0.36. A30G A59G A124C A140G gave a self-cleavage of 0.77. For U29C A94G C113A, the self-cleavage was 0.67. Work on U15C U85C A117G yielded a self-cleavage of 0.3. With U1C A2G G34A A64C U112C A117C the self-cleavage was 0. In the case of U62C C76U A92G A124G, the self-cleavage is reported as 0. U13C G25A A77G gave a self-cleavage of 0.74. Work on U1C U5G C38U C98A A140G yielded a self-cleavage of 0.25. A50G C101A U102C showed a self-cleavage of 1.19. Work on U12C A67G A121U yielded a self-cleavage of 0.92. For U15C U26G A65G U115G, the self-cleavage was 0.17. In the case of A42G A59G U62C A138U C145A, the self-cleavage is reported as 0. Work on U85C U132C U143C yielded a self-cleavage of 0.16. Work on U29G U104A A124U yielded a self-cleavage of 0.95. In the case of C71U U87A U143A, the self-cleavage is reported as 0.05. Variant U9A A31U A140G has a self-cleavage of 1.09. For U12A U39C A129C, the self-cleavage was 1.38. With A43G C68U U85A the self-cleavage was 0.02. Variant A67C G82U G106U has a self-cleavage of 0.03. For U20A A94G U96C, the self-cleavage was 0.19. U62C A140G U143A showed a self-cleavage of 0.08. C68U A69G G74A showed a self-cleavage of 0.13. U45C A77U U81C showed a self-cleavage of 0.61. U5A U12C A78G gave a self-cleavage of 1.1. A43G A57G A124U A136U A138G showed a self-cleavage of 0. In the case of U12G U39C G74A A141G, the self-cleavage is reported as 0.87. With U62C U85A U130C the self-cleavage was 0.04. Work on U12G U26A A140G yielded a self-cleavage of 0.93. With A22G U52C A92C the self-cleavage was 0. Variant U14C U26A U52C C98U has a self-cleavage of 0.19. U20C A78G A138G A141G gave a self-cleavage of 1.58. In the case of A24G A92G A141G, the self-cleavage is reported as 0.1. In the case of A22G U130C A140G, the self-cleavage is reported as 1.41. With G36C U87C U91C A117U A141G the self-cleavage was 0.07. For U81A U85C A117U, the self-cleavage was 0.21. Variant U12C A43G G144U has a self-cleavage of 1.5. Work on G88A A107G U119C yielded a self-cleavage of 0.05. For U26C C38U U47A U104C A141G, the self-cleavage was 1.22. Work on U81A U91C U130C yielded a self-cleavage of 0.68. A31G G34A U85C G122C gave a self-cleavage of 0.21. G41U U108A U143A showed a self-cleavage of 1.63. G11A A42G U87A U112C showed a self-cleavage of 0.04. For U5A U13A U108C, the self-cleavage was 0. For U39C A64U U134C, the self-cleavage was 0.44. A43U U73C A77U A138U showed a self-cleavage of 1.6. Variant U5C C68G A117U has a self-cleavage of 0.05. In the case of A50U G75U U112C U134C U143C, the self-cleavage is reported as 0.36. With U5C A79G C118U the self-cleavage was 0.52. U45A U102C U132C showed a self-cleavage of 1.41. U15A U102C U134G showed a self-cleavage of 0.61. With A2U U9A U47A A121U the self-cleavage was 0.74. For A31U A77G C84U A107G A129G A140G, the self-cleavage was 0.21. U12C G34U A136G gave a self-cleavage of 1.95. Work on A50G A57G A92G A140U U143A yielded a self-cleavage of 0.57. With U15C U81C U91C the self-cleavage was 0.54. A50G A69G A142G showed a self-cleavage of 0.12. U15A U20C A140U gave a self-cleavage of 0.75. U46C U87A U109A C123A gave a self-cleavage of 0.1. In the case of C76U U112A U134C, the self-cleavage is reported as 1.48. With C90U U130A A140G the self-cleavage was 0.04. G34A G48U A107G gave a self-cleavage of 1.01. With U5C C18U G70C U104A U112A C146U the self-cleavage was 0.07. In the case of A43G U62C U115C, the self-cleavage is reported as 0. For U1C G4C A42C U52A A69G A107G, the self-cleavage was 0. U15C A24G A78G U91C U119C gave a self-cleavage of 0. U12C U13C A138G showed a self-cleavage of 1.15. Work on A42G G72A A138U A141G yielded a self-cleavage of 1.74. In the case of U12C A79G U100C, the self-cleavage is reported as 1.7. For A50G U52A A64C, the self-cleavage was 0.51. With U12G G89C U91C A141G the self-cleavage was 0. U1C A50G U115A showed a self-cleavage of 1.39. In the case of U20A U87A A94U U100C A117G, the self-cleavage is reported as 0.13. Work on U9C U119C A136G yielded a self-cleavage of 1.72. For U5A G35A A64U A121G, the self-cleavage was 0.12. With G27A C37A U134C the self-cleavage was 1.19.

— the RNAGym collection of RNA variant scans (doi:10.7554/elife.90254)
